According to PubChem BioAssay AID504832 (National Center for Advancing Translational Sciences (NCATS), 2011):
The campaign covered roughly 310,000 compounds. About 18,000 (5.8%) were called active. Inconclusive results, whose numbers are uncertain, are shown with a selection of clear calls. Calls come from the whole dose curve; as a rule, active = well fitted inhibition curve with a large enough effect; inconclusive = small, poorly fitted or top-dose-only effect, or another doubt; inactive = no such curve, though single readings can be large or run the other way. No potency is given beside an inconclusive call; the fits are too rough.

assay: Primary qHTS for delayed death inhibitors of the malarial parasite plastid, 48 hour incubation; details: P. falciparum luciferase growth in erythrocytes; series mostly up to 28.7 µM; activity change, negative = inhibition: at the top concentration
Outline: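 First compound was added to culture medium, then infected red cells at 0.1% parasitemia and 2% hematocrit (final). After incubation at 37 C under 5% CO2, luciferase detection reagent was dispensed and light output recorded.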
% is set by controls: 0 for no effect and ±100 for the full control effect; potency is the fitted concentration of half-maximal effect; tags give direction and shape of the fitted curve.

Structure (SMILES) | Potency | activity change, negative = inhibition
Cc1cccc(C)c1Nc1c(-c2ccc(N3CCOCC3)cc2)nc2cnccn12 | inconclusive [inhibitor, single point] | 
COc1ccccc1N1CCN(C(=O)CSc2nnc(NC(=O)C3CC3)s2)CC1 | inconclusive [inhibitor, single point] | 
CN(Cc1ccc(OC(F)F)cc1)C(=O)c1ccc(S(=O)(=O)N(C)c2ccccc2)cc1 | inconclusive [inhibitor, single point] | 
CC(C)c1nc(-c2c(N)n(C)c(=O)n(C)c2=O)sc1C(=O)C(C)(C)C |  | inactive: 8.96%
O=C(Nc1ccc2c(c1)OCO2)C1CC(=O)N(c2ccc(F)cc2)C1 (stereo not drawn) |  | inactive: -12.3%
Cc1ccc([N+](=O)[O-])cc1NC(=O)CN(C1CCCCC1)S(=O)(=O)c1ccc(Cl)cc1 | inconclusive [inhibitor, single point] | 
COc1cc(OC)cc(-c2c(C#Cc3ccsc3)c3cc(-c4ccc5c(c4)OCCO5)ccc3n2C)c1 | inconclusive [inhibitor, single point] | 
CNS(=O)(=O)c1cccc(C(=O)OCC(=O)N2CCCC2)c1 |  | inactive: 35.7%
O=C(COC(=O)Cc1cccc(C(F)(F)F)c1)NC1CCS(=O)(=O)C1 (stereo not drawn) | inconclusive [inhibitor, partial curve, poor fit] | 
COc1ccc(N(C(=O)c2ccco2)C(C(=O)NC2CCCC2)c2cccs2)cc1OC (stereo not drawn) | inconclusive [inhibitor, single point] | 
O=C(N/N=C/c1ccc(OCc2ccccc2)cc1)c1ccco1 | active: 1.85 µM | 
COC(=O)c1ccc(OCC2c3cc(OC)c(OC)cc3CCN2C(=O)c2ccco2)cc1 (stereo not drawn) | active: 14.7 µM | 
CN1CCN(c2ccc(S(=O)(=O)N3CCCCC3)cc2NC(=O)Cc2c(F)cccc2Cl)CC1 | inconclusive [inhibitor, partial curve] | 
NC(=O)C1CCN(c2nc3c(S(=O)(=O)c4ccccc4)nnn3c3ccccc23)CC1 | inconclusive [inhibitor, single point] | 
CCN(CC)S(=O)(=O)c1ccc(N2CCOCC2)c(NC(=O)C(C)(C)C)c1 |  | inactive: 75.4%
CCCc1nc2c(nnn2Cc2ccccc2Cl)c(=O)[nH]1 |  | inactive: 21.2%
CC1CCCN(c2nc3c(c(=O)n(C)c(=O)n3C)n2CCSc2nc3ccccc3s2)C1 (stereo not drawn) | inconclusive [inhibitor, partial curve, poor fit] | 
CCCOc1ccc(-c2c(C(=O)N/N=C/c3cccs3)nnn2-c2nonc2N)cc1 | inconclusive [inhibitor, single point] | 
CCOC(=O)C1(CCOc2ccccc2)CCN(Cc2ccncc2)CC1 | inconclusive [inhibitor, single point] | 
O=C(CN(Cc1cccs1)C(=O)CSc1nnc(COc2ccccc2)o1)NC1CCCCC1 | active: 13.1 µM | 
COC(=O)c1nn(-c2ccccc2)c(Cl)c1/C=N/OCc1ccc(Cl)cc1Cl | inconclusive [inhibitor, single point] | 
O=C(CNC(=O)c1cccs1)Nc1ncccc1O |  | inactive: 17.1%

Structure (SMILES) | Potency | activity change, negative = inhibition
O=C(Cc1ccc(F)cc1)Nc1nnc(SCC(=O)NC2CCCC2)s1 |  | inactive: 15.5%
O=C(N/N=C/c1cccnc1)c1cc2c(ccc3ccccc32)o1 |  | inactive: -16.5%
CCOc1ccc(CN(C)C(=O)CCc2ccc(S(=O)(=O)N3CCCCCC3)cc2)cc1 | active: 13.1 µM | 
O=C(COc1ccccc1[N+](=O)[O-])NCCC1=CCCCC1 |  | inactive: 48.9%
CC1CCN(C(=O)C2CCN(S(=O)(=O)c3cc(Cl)ccc3Cl)CC2)CC1 |  | inactive: 1.96%
C[C@]12CCC(=O)CC1CCC1C2CC[C@@]2(C)C1CC[C@@]21CCO1 (stereo partly drawn) | inconclusive [inhibitor, partial curve, poor fit] | 
CC(=O)Nc1ccc(OCC(=O)c2ccc(C)cc2C)cc1 | inconclusive [inhibitor, single point] | 
CCc1cc2cc(C)cc(C)c2nc1SCC(=O)N1CCN(C(=O)c2ccco2)CC1 |  | inactive: -24.4%
N=C1c2c(cc(=O)n3c2[nH]c2ccccc23)CN1CCN1CCOCC1 | inconclusive [inhibitor, single point] | 
Nc1nonc1-n1nnc(C(=O)N/N=C/c2ccccc2F)c1CN1CCc2ccccc21 | inconclusive [inhibitor, single point] | 
CC(Cc1ccc(O)c(O)c1)C(C)Cc1ccc(O)c(O)c1 (stereo not drawn) | inconclusive [inhibitor, single point] | 
CC(=O)N1CCCc2cc(S(=O)(=O)N3CCc4ccccc4C3)ccc21 |  | inactive: -8.21%
COc1cc(CNc2cccc(F)c2)cc(Br)c1O | inconclusive [inhibitor, single point] | 
OCCC#Cc1ccc(CN2CCN(CCc3ccccc3)C(CCO)C2)cc1 (stereo not drawn) | inconclusive [inhibitor, single point] | 
Fc1ccc(-[n+]2nc(Nc3ccccc3)sc2-c2c3ccccc3cc3ccccc23)cc1 | inconclusive [inhibitor, full curve, poor fit] | 
CCN(C(=O)COC(=O)/C=C/c1cccc([N+](=O)[O-])c1)c1c(N)n(Cc2ccccc2)c(=O)[nH]c1=O | inconclusive [inhibitor, single point] | 
O=C(NCCc1ccc2c(c1)OCCO2)c1cccc(S(=O)(=O)N2CCCC2)c1 | inconclusive [inhibitor, single point] | 
COc1ccc(C)cc1NC(=O)CCS(=O)(=O)c1cc2c(cc1Cl)NC(=O)CO2 | inconclusive [inhibitor, partial curve, poor fit] | 
O=C(C1CC(=O)N(C2CCCCC2)C1)N1CCN(c2cccc(C(F)(F)F)c2)CC1 (stereo not drawn) |  | inactive: 15.7%
c1ccc(C2c3c(ccc4ccccc34)Oc3ncn4nc(-c5ccco5)nc4c32)cc1 (stereo not drawn) |  | inactive: -8.5%
Cc1c(C)c2c(OCC(=O)NCc3ccncc3)cc3c(c2oc1=O)CCC(C)(C)O3 | inconclusive [inhibitor, partial curve] | 
